Laboratory results from the supplement of paper PMC6206098.
± gives the uncertainty stated by the source. The sequences are guide strands of siRNAs; only the seed at positions 2 to 7 varies.

Legend:
H460 = assay: cell viability relative to lipid-only control; higher = less toxic; conditions: concentration: 10 nM; 96 h; Homo sapiens
HeyA8 = assay: as above; conditions: concentration: 10 nM; 96 h; Homo sapiens
M565 = assay: as above; conditions: concentration: 10 nM; 96 h; Mus musculus
3LL = assay: cell viability relative to siNT1 control; HeyA8 human ovarian and H460 human lung cancer; M565 mouse liver and 3LL mouse lung cancer; siNT1 is a non-toxic control siRNA; higher = less toxic; conditions: concentration: 10 nM; 96 h; Mus musculus
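Wherever cell viability relative to lipid-only control is given: reverse lipid transfection in 384-well plates, in triplicate, of duplexes on a non-toxic 19mer backbone with passenger strand 2′-O-methylated at positions 1 and 2, luminescence viability read-out.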
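Wherever cell viability relative to siNT1 control is given: Luminescence-based viability of cells reverse transfected in 384-well plates with lipid-complexed siRNAs built on a non-toxic 19mer backbone whose passenger strand carries 2′-O-methyl groups at positions 1 and 2, triplicates.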

Sequence	cell viability (H460)	cell viability (HeyA8)	cell viability (M565)	cell viability (3LL)
UCUUACAACAUGUAAACCAAA	67.8 ± 4.9%	85.4 ± 5.6%	70.7 ± 12%	94.6 ± 17%
UCGUCAUACAUGUAAACCAAA	72.6 ± 23%	66.3 ± 7.3%	44.8 ± 9.2%	92.3 ± 7.1%
UGAACAGACAUGUAAACCAAA	74 ± 12%	72.2 ± 5.6%	54.6 ± 1.9%	91.3 ± 18%
UCCGCUCACAUGUAAACCAAA	49.1 ± 5.9%	23.1 ± 2.4%	92.4 ± 14%	80 ± 13%
UAAUUCCACAUGUAAACCAAA	66.1 ± 5.6%	52.4 ± 4.9%	70.3 ± 14%	50.1 ± 8.3%
UCGGUCUACAUGUAAACCAAA	35.7 ± 3.2%	30.7 ± 2.8%	36.1 ± 8.4%	75.8 ± 20%
UAAGCGCACAUGUAAACCAAA	93.9 ± 16%	89 ± 18%	34.9 ± 3.5%	59.7 ± 6.3%
UCUCCUCACAUGUAAACCAAA	24.3 ± 1.1%	44.4 ± 3%	38.8 ± 6.3%	59.5 ± 10%
UGCCAGCACAUGUAAACCAAA	35.6 ± 2.9%	27.7 ± 4.7%	19.1 ± 4.2%	5.5 ± 2.7%
UCAAGGGACAUGUAAACCAAA	42.9 ± 0.72%	60.3 ± 7.3%	46.5 ± 7.8%	76 ± 21%
UAUGUUGACAUGUAAACCAAA	93.6 ± 5.2%	100 ± 3.3%	71.4 ± 21%	119 ± 14%
UGUAUCCACAUGUAAACCAAA	37.6 ± 1.9%	7.85 ± 1.3%	21.5 ± 4.2%	32.7 ± 13%
UUCCUUCACAUGUAAACCAAA	47.4 ± 3.1%	23.7 ± 6.7%	62.3 ± 5.5%	56 ± 15%
UGUCCUGACAUGUAAACCAAA	73 ± 8.7%	59.1 ± 6.5%	11.3 ± 1.3%	39.3 ± 9.4%
UCCUCGAACAUGUAAACCAAA	63.7 ± 7.7%	88.8 ± 6.9%	65 ± 3.1%	92.7 ± 21%
UCUGCUGACAUGUAAACCAAA	81.5 ± 23%	66.5 ± 4.3%	36.8 ± 7.3%	90.6 ± 13%
UAUCUCAACAUGUAAACCAAA	34.2 ± 2.5%	83.3 ± 3.9%	95.4 ± 22%	100 ± 4.9%
UUGCGCUACAUGUAAACCAAA	105 ± 8.6%	90.8 ± 11%	34.6 ± 4.4%	45.8 ± 5.1%
UCGUCGAACAUGUAAACCAAA	83.8 ± 22%	78.9 ± 9.9%	56.4 ± 7.2%	88.8 ± 11%
UGAGGUCACAUGUAAACCAAA	28 ± 5.5%	27.2 ± 2.4%	4.84 ± 1.7%	60.3 ± 1.3%
UACUGCCACAUGUAAACCAAA	51.5 ± 3.7%	25.6 ± 4.3%	5.01 ± 1.9%	10.3 ± 1.7%
UAACCAAACAUGUAAACCAAA	72.7 ± 6.8%	95 ± 16%	69.3 ± 8.9%	93.3 ± 3.6%

Sequence	cell viability (H460)	cell viability (HeyA8)	cell viability (M565)	cell viability (3LL)
UAUAAUCACAUGUAAACCAAA	86.5 ± 10%	87.3 ± 6.2%	65.3 ± 8.5%	91.2 ± 14%
UCUAUCUACAUGUAAACCAAA	59.9 ± 9.2%	82.9 ± 9%	61 ± 11%	94.5 ± 12%
UACUCAGACAUGUAAACCAAA	73.7 ± 6.1%	78.9 ± 6.8%	25.3 ± 3.2%	92.2 ± 9.6%
UGUGGGUACAUGUAAACCAAA	10.5 ± 2.7%	3.88 ± 0.41%	11 ± 1.8%	9.28 ± 2.4%
UCUAAUAACAUGUAAACCAAA	56.1 ± 1.9%	82.3 ± 3.2%	73.7 ± 5.7%	97.3 ± 18%
UCCAAGUACAUGUAAACCAAA	55.6 ± 10%	51.9 ± 3.2%	34.2 ± 8%	83.2 ± 27%
UCGAUUAACAUGUAAACCAAA	61 ± 3.2%	86.8 ± 5.4%	70.2 ± 3.1%	87.5 ± 16%
UGGAUAAACAUGUAAACCAAA	64.9 ± 7%	83.7 ± 5.8%	54.2 ± 0.78%	101 ± 11%
UAGGCAGACAUGUAAACCAAA	52.6 ± 3.8%	31.6 ± 2.6%	18.2 ± 2.8%	76.8 ± 14%
UCGACUUACAUGUAAACCAAA	81.7 ± 11%	86.11 ± 0.39%	68 ± 12%	94.4 ± 14%
UGCGUGAACAUGUAAACCAAA	80 ± 5.2%	78.8 ± 2.7%	55.5 ± 2.2%	94.6 ± 11%
UGGCAGUACAUGUAAACCAAA	19.3 ± 1.8%	6.18 ± 1.5%	15.5 ± 1.9%	31 ± 2.5%
UCCUUCUACAUGUAAACCAAA	70.1 ± 12%	41 ± 2.9%	79 ± 3.3%	94.3 ± 14%
UCGUGUAACAUGUAAACCAAA	84.4 ± 4.8%	83.2 ± 7.9%	57.1 ± 6.8%	95.3 ± 13%
UUGCUGGACAUGUAAACCAAA	46.5 ± 8%	52.9 ± 9.9%	13.3 ± 2.1%	14 ± 4.6%
UCGCGGCACAUGUAAACCAAA	21.8 ± 0.88%	4.54 ± 0.29%	9.21 ± 0.83%	10.9 ± 3.4%
UGAGAACACAUGUAAACCAAA	38.6 ± 4.5%	72 ± 4.9%	44.6 ± 12%	67.9 ± 12%
UGAUUGAACAUGUAAACCAAA	58.4 ± 8.5%	51.7 ± 6.4%	90 ± 9.3%	77.8 ± 17%
UCCUUAAACAUGUAAACCAAA	71.6 ± 20%	85.1 ± 3.4%	94.5 ± 9.1%	98.2 ± 17%
UCCUUAUACAUGUAAACCAAA	89.6 ± 2.9%	71.4 ± 7.2%	91.8 ± 5.2%	99.9 ± 19%
UGGUGUGACAUGUAAACCAAA	22 ± 2.4%	29.3 ± 4.3%	38.4 ± 7.1%	71 ± 5.7%
UUCAUUGACAUGUAAACCAAA	67.3 ± 8%	97.6 ± 3.3%	54.7 ± 3.8%	78.3 ± 9%
